Data taken from PubChem BioAssay AID1768 (National Center for Advancing Translational Sciences (NCATS), 2009).
Screen size: about 270,000 compounds; about 620 (0.23%) were called active. This list was built around the results that the source calls inconclusive (neither active nor inactive); the mix of calls is not that of the screen. The call rests on the fitted dose curve; in most records, active means well fitted inhibition curve with a large enough effect in the polarisation, with a control signal flat (not every such curve was filed as active); inconclusive means small, poorly fitted or top-dose-only effect, or effect the other way, or a change in a side signal; inactive means no such curve, though single readings can be large or run the other way; the % refers to the polarisation. Where the call is inconclusive, the potency comes from a doubtful curve fit. A note “side channel” means that the fit belongs to a control or component signal, not to the main read-out.

target: Menin (Homo sapiens) (UniProt O00255); experiment: qHTS Assay for Inhibitors Targeting the Menin-MLL Interaction in MLL Related Leukemias: Competition With Texas Red Labeled MLL-derived Mutant Peptide; conditions: fluorescence polarization; FP activity change, negative = inhibition: at 61.6 µM (top of the series); on FP activity change, negative = inhibition: % of control where 0% means no effect
Potency means the concentration at half of the fitted maximal effect; tags describe the fitted curve by direction and shape or compound fluorescence and quenching.

UniProt O00255, sequence (O00255 whole entry, looked up): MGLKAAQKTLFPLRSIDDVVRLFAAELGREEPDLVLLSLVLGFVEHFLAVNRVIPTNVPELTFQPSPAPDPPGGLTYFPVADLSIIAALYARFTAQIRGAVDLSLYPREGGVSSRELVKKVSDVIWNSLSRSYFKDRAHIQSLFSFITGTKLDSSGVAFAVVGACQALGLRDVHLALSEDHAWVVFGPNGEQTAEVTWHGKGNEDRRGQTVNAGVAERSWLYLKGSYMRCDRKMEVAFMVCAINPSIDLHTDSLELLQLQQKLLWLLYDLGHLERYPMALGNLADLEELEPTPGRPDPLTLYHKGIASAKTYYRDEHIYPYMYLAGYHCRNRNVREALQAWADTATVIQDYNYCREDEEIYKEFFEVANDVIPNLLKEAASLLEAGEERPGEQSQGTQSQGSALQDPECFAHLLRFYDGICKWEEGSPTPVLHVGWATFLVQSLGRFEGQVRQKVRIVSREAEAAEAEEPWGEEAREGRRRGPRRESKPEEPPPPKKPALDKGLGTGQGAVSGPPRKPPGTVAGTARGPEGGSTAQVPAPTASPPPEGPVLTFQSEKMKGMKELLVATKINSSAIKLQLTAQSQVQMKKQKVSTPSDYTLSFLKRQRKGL

Potency, inconclusive:
Cc1ccc(C(C)C)c(OCc2ccc(C(=O)N/N=C/c3ccc(O)cc3O)cc2)c1 3.98 µM [quencher, side channel, full curve]
Nc1nc2c(ncn2COC(CO)CO)c(=O)[nH]1 10 µM [quencher, side channel, full curve, poor fit]
COCCn1c(=O)cnc2cnc(Nc3cccc(OC)c3)nc21 39.8 µM [quencher, side channel, partial curve]
Cc1ccc(Nc2cc(C)nc3ncnn23)cc1 44.7 µM [inhibitor, partial curve, poor fit]
O=C(Cc1csc(Nc2nc(=S)[nH]c3ccccc23)n1)NCc1ccc(Cl)cc1 12.6 µM [inhibitor, partial curve]
COc1ccccc1C(=O)Oc1cc(N)n(S(=O)(=O)c2ccc(C)cc2)n1 22.4 µM [quencher, side channel, single point]
COc1ccc2c(n1)Sc1nc3ccccc3nc1N2 2.82 µM [quencher, side channel, full curve, poor fit]
COc1cc(/C=C2\SC(=S)N(CCC(=O)Nc3ccccn3)C2=O)cc(OC)c1OC 12.6 µM [quencher, side channel, partial curve]
C#CCOCCOCCOCCNc1nc(N2CCN(C(=O)C(Cc3ccc(O)cc3)n3cc(C(N)CC(C)C)nn3)CC2)nc(N2CCN(C(=O)C(Cc3cc4ccccc4[nH]3)n3cc(C(N)Cc4ccc(O)cc4)nn3)CC2)n1 (configuration not stated) 2.82 µM [fluorescent, side channel, full curve, poor fit]
O=C(CCN1CCOCC1)N1c2ccccc2Sc2ccc(Cl)cc21 10 µM [inhibitor, partial curve]
CNC(=S)N/N=C/c1cc(Br)cc(Br)c1O 20 µM [quencher, side channel, single point]
CCC1=NN2C(=N)/C(=C\c3ccc(OCCOc4ccc(NC(C)=O)cc4)c(OC)c3)C(=O)N=C2S1 39.8 µM [fluorescent, single point]
CCOc1cc(/C=C(/C#N)c2ccc(F)cc2)ccc1OCc1ccc(C(=O)O)o1 28.2 µM [quencher, side channel, single point]
CCOc1ccc(NC(=O)Nc2cc(C)ccc2OC)cc1 20 µM [quencher, side channel, partial curve]
N#CC1=C(N)Oc2n[nH]c(-c3cccnc3)c2C1c1cc(F)ccc1F (configuration not stated) 31.6 µM [fluorescent, side channel, partial curve]
Cc1ccccc1-c1cc(-c2ccccc2O)on1 31.6 µM [quencher, side channel, single point]
Nc1ccc2c(c1)Oc1ccccc1C=C2 25.1 µM [quencher, single point]
C=CCNC(=O)c1ccccc1NC(=O)c1ccc(Cl)c(S(=O)(=O)Nc2ccccc2)c1 14.1 µM [quencher, side channel, partial curve]
CC(C)n1cnc2c(=S)nc[nH]c21 39.8 µM [inhibitor, single point]
CCOC(=O)N1CCN(Cc2nc3cc(NC(C)=O)ccc3n2C)CC1 10 µM [inhibitor, partial curve]
Brc1ccc(N/N=C(/N=Nc2nn[nH]n2)c2ccccc2)cc1 8.91 µM [quencher, side channel, full curve]
C/C(=N\N=C(/N)SC1CC(=O)N(c2cccc(Cl)c2)C1=O)c1cccs1 (configuration not stated) 1 µM [quencher, side channel, full curve]
COc1ccc2ccccc2c1CNC(C)CCc1ccccc1 (configuration not stated) 11.2 µM [fluorescent, side channel, partial curve]
CC/C(=C\c1oc2cc3ccccc3cc2[n+]1CC)Nc1ccccc1 12.6 µM [fluorescent, side channel, partial curve]
N#Cc1c(N)nc2c3c(sc(=N)c2c1N)NC(=O)CC3c1c(F)cccc1Cl (configuration not stated) 22.4 µM [quencher, side channel, single point]
O=C(N/N=C/c1ccc(F)cc1)c1ccc(Br)cc1 39.8 µM [inhibitor, single point]
CCC(=O)c1ccc(OCC(O)CN2CCCCC2)cc1 (configuration not stated) 10 µM [inhibitor, full curve, poor fit]
CC(/C=C/c1ccccc1)=N\NC(=O)CSc1ccccn1 22.4 µM [fluorescent, side channel, single point]
O=C(NNC(=O)c1ccc(NC(=O)c2ccccc2)cc1)c1ccc(F)cc1 25.1 µM [fluorescent, side channel, single point]
CC(C)OC(=O)CSc1nc(Cc2ccccc2)nc2ccccc12 39.8 µM [fluorescent, side channel, single point]
Cc1ccc2c(c1)N(CC(=O)N1CCC(O)CC1)C(=O)CO2 39.8 µM [inhibitor, single point]

FP activity change, negative = inhibition, inactive:
COC(=O)[C@@H](NC(=O)N1CCc2nc(-c3ccc(OC)cc3C)c3c(c2C1)CO[C@@H](c1ccccc1)C3)C(C)C -7.58% [at 11.7 µM]
NC(=O)NC(=O)CC1S/C(=N/N=C2\CSC(=O)N2)NC1=O (configuration not stated) 21.3%
CC(=O)N/N=C/c1cc(C(C)(C)C)cc(/C=N/NC(C)=O)c1O 0.128%
COc1ccc(NC2CCN(C3CC(=O)N(c4ccc(F)c(Cl)c4)C3=O)CC2)cc1 (configuration not stated) 12.3%
Cc1ccc2[nH]c(=O)c3cc(C(=O)N4CCN(C(=O)c5ccco5)CC4)sc3c2c1 1.65%
N=c1n(CC(=O)c2ccc([N+](=O)[O-])cc2)c2ccccc2n1Cc1ccccc1Cl -0.742%
